{"source": "paper PMC12136788", "binders": {"B1": {"name": "chr19:47150976:47150977:-_ENSG00000197380_ENST00000391916|hu_hu|FALSE|FALSE (ssRNA)", "RNA": "GGGAGUUCUACAGUCCGACGAUCACUGGGGAGUCACCAUCGUCAUAAUAAAUACAGUAAUUUUAAAAAAGAAAAAAAAUACUAGAUUGGAACAGCUGAGGGUCAUCAGGCUUCCCCCAUUCCCUCUCACAGGGAGUGGGGGUCCAACAGAGGAUUGAGCAUCA"}, "B2": {"name": "125842170_125848949_403_3pUTR_ENSMUSG00000033917_ENSMUST00000038791|mouse|control|control (ssRNA)", "RNA": "GGGAGUUCUACAGUCCGACGAUCUGCAUCAAGACAGGAACUCCAUCAGAAGUAAACUCGAUGUCCAGCUCCACACCUGUUGCUCCAUUCUUAGCUGCCUGCCGGAUGGCCGCCAGCGUGUUCUCGGGCGCGUCGUGGCUGCCGCAACAGAGGAUUGAGCAUCA"}, "B3": {"name": "chr1:6260860:6260861:+_ENSMUSG00000025907_ENSMUST00000027040|perfect_dup|FALSE|FALSE (ssRNA)", "RNA": "GGGAGUUCUACAGUCCGACGAUCUGGUUUGAGAUCCAGGGCAGGAAGAGACUCUGAGUGCAGAAAAUAUAAAGUAGGACUAACAGUAAACAAUACAUAAUUGUCGUGCCGCUCAUCUAGGAUGAUGAGAACCAAAUCUCCCACCAACAGAGGAUUGAGCAUCA"}, "B4": {"name": "chr7:29966231:29966232:-_ENSG00000136193_ENST00000242059|hu_mus|FALSE|FALSE (ssRNA)", "RNA": "GGGAGUUCUACAGUCCGACGAUCACCAAAACAGGGUGACUGUGCUUUGGGGACAAGUUUUACAUCAUCAACAAAGAUGAAAGGCUUGAAUAUGGACCUGGAAGGAUCUGGGGUCCCGGUGAAGUAGUGGAUACACGGUGAACUCAACAGAGGAUUGAGCAUCA"}, "B5": {"name": "chr2:217001844:217001845:+_ENSG00000079246_ENST00000392132|hu_hu|hu_hu_hu_mus_False|18_78 (ssRNA)", "RNA": "GGGAGUUCUACAGUCCGACGAUCACCAACUUGAGGAUUAGAUCUUUUGUCAUAAGCAUAUCGAACUAUGGCGACCAUGUUUAACUCAUCCAAAGCAUGAACGAGAGAGGAAAGGGCAACUGCAGCUGCCUCAUCAUCCUUUGCCAACAGAGGAUUGAGCAUCA"}, "B6": {"name": "chr5:37680062:37680063:+_ENSMUSG00000029121_ENSMUST00000031004|mus_hu|mus_mus_mus_hu_False|1_98 (ssRNA)", "RNA": "GGGAGUUCUACAGUCCGACGAUCUUUGGGUGUAGCUGGCACCUCGUACACAGGACCGUCAUACAUGCCCCUGGAAACCCCUUGCAAUCCAAAAACCUUAUUCCUGAUUUUGACGCGCUGGUACAGGUGCUCCGGGAAUGGCUUCAACAGAGGAUUGAGCAUCA"}, "B7": {"name": "chr11:87793471:87793472:-_ENSMUSG00000020483_ENSMUST00000020775|mus_mus|mus_mus_mus_hu_False|8_58 (ssRNA)", "RNA": "GGGAGUUCUACAGUCCGACGAUCUGGACUUGAAAAUAAAAGAAUAAGCUGGAUCCCCCACCCCCCCACAUUGUCAACCCUAUGCGAGAGUUUUGAAGGCGACUCAUGAAAAUCAGCAGCUCAAACGAAUGACAACCCCCCACCCAACAGAGGAUUGAGCAUCA"}, "B8": {"name": "chr1:184663225:184663226:-_ENSG00000116406_ENST00000318130|hu_hu|FALSE|FALSE (ssRNA)", "RNA": "GGGAGUUCUACAGUCCGACGAUCACCAACAGAUUGUUUAGCAAGUCAUAGCUCAUCCUUCUCCAUCAUUUCAAAUGCUUCUAUAUCUUCAUUCCAGUCUGCUAAUAUGGAGUCUAUAGGCUGGACCUUUUUACCCCAGCUAACCAACAGAGGAUUGAGCAUCA"}, "B9": {"name": "chr6:42975684:42975685:+_ENSG00000112640_ENST00000485511|hu_hu|motif|central (ssRNA)", "RNA": "GGGAGUUCUACAGUCCGACGAUCACUGUCAAAUAGGUCUAGGAGAGCAAGUACAAACUUCUGGUCGAUGUACUUCUUGGCGGUGUUUGGCUGGAAAUCAGGAGACUCAAGGAAACGUAAGAAGAACUCAUACACGAGCUGGAGCAACAGAGGAUUGAGCAUCA"}, "B10": {"name": "chr13:29045409:29045410:-_ENSMUSG00000076431_ENSMUST00000067230|mus_mus|FALSE|FALSE (ssRNA)", "RNA": "GGGAGUUCUACAGUCCGACGAUCAUUUUGUUGCAAGGUAGGAAGCCAAGAAGCUUGCAUGCAACAGACCGGCAUGAAUAAAUGUAUGUUUCUCCCUCCCUCCUGCAAGAAGGGGAGCUGGUUACCGGCAGAGUUCCCCCACUGCAACAGAGGAUUGAGCAUCA"}, "B11": {"name": "chr14:76904430:76904431:+_ENSMUSG00000022010_ENSMUST00000022587|mus_mus|mus_mus_mus_hu_True|18_108 (ssRNA)", "RNA": "GGGAGUUCUACAGUCCGACGAUCUGCUGGAAAAAAAACCCUCGUGGAAAAAAAGAGGGAACACCAGCAGCCUUGUAUAAGCUAGAUAAAAUCUUCUGGCUUUCCGCAGCCCAGGGAGUGAGAACGGACGGCAGCCCUAAUUUACAACAGAGGAUUGAGCAUCA"}, "B12": {"name": "7417412_7421492_895_3pUTR_ENSMUSG00000040021_ENSMUST00000165952|mouse|control|control (ssRNA)", "RNA": "GGGAGUUCUACAGUCCGACGAUCAGAGAUGGGCCGUGUCUCUGAGGAACUAGAGACUCUUUAGAACCUUUCCAGCUUUGUUUUCGGUUAAUUGAAUGUUGCACAUUUCCUGGUUUCAUGGUGGCAUUAAUAGGCCUGGCAGCUCAACAGAGGAUUGAGCAUCA"}, "B13": {"name": "69556381_69556845_2733_CDS_ENSMUSG00000005198_ENSMUST00000058470|mouse|control|control (ssRNA)", "RNA": "GGGAGUUCUACAGUCCGACGAUCUACAUUCUGCUGCCCGACAACAGCAAUGACCUGGGAGAUGUUGAUCUUGGAACCCUUGGCUCCAGACACCACCAUAGACUUGAAGUUGUUAUAUUCAGAGAGGGAUUUCUGUGCAGAGGACAACAGAGGAUUGAGCAUCA"}, "B14": {"name": "chr1:163117127:163117128:-_ENSG00000143248_ENST00000313961|hu_mus|hu_hu_hu_mus_False|1_1 (ssRNA)", "RNA": "GGGAGUUCUACAGUCCGACGAUCUGCUACAAAGGAUGUAACUCAACUCACAGGGCAACUUUUGGAAGCCUGACCAGAUGACUACUUGAUUAGCUCCUUAUAAAAUUCAGAGCGCACAAAGCGGGGCAGAGAAUCCUUUUCCAUCAACAGAGGAUUGAGCAUCA"}, "B15": {"name": "153779924_153780044_4694_3pUTR_ENSG00000143614_ENST00000368655|human|control|control (ssRNA)", "RNA": "GGGAGUUCUACAGUCCGACGAUCCAUCACUAAUCCCUGGGAAGAGUAUGAAAAUGGGGAGAAGAAAGGGUAAGAAAUCAAACCUCAGCGGUUGAACAAAGGGUCACCGAGCUAUACUAGUCAAGAAGCAGCUUCUAUGUAACUCAACAGAGGAUUGAGCAUCA"}, "B16": {"name": "chr1:66463027:66463028:+_ENSMUSG00000015222_ENSMUST00000114013|mus_mus|mus_mus_mus_hu_True|28_28 (ssRNA)", "RNA": "GGGAGUUCUACAGUCCGACGAUCUUUUCUUUCAGGAGUGGAAAUUCUGCCUCUCCCGGUUUUAAAAGGCUUUUCUUUUCUAUGUUUCUCAAGAGAUGAUCUCCGAGCAUCCUUCUCAGCUUUCUCCUCUUUAGGAAUAGUUUCCAACAGAGGAUUGAGCAUCA"}, "B17": {"name": "chr1:115275314:115275315:-_ENSG00000009307_ENST00000339438|hu_mus|FALSE|FALSE (ssRNA)", "RNA": "GGGAGUUCUACAGUCCGACGAUCAACCUCUAUGUUGGUUGCUCGUUCCAAUUUGUCACGUCGGUCUGUUGAAAUAUUAAACCUAACAUGGUCACCUUCCAGCAGGGUCACUUUGGAUUUUGUGUCUUUGUCUCCAAAGGGAAGCAACAGAGGAUUGAGCAUCA"}, "B18": {"name": "chr7:74379609:74379610:-_ENSMUSG00000030557_ENSMUST00000156690|mus_hu|FALSE|FALSE (ssRNA)", "RNA": "GGGAGUUCUACAGUCCGACGAUCGCAGGUAAGUGCCUGAUUCUGUGUAUGUAACACACACCCACACAUACACACUCACACCCACAUACAUAUAUAUGUAAAGGGAUAUAUAUAUGUAUGUACAUAUAAAUAUAUUUAACUCAUCAACAGAGGAUUGAGCAUCA"}, "B19": {"name": "chr12:39756943:39756944:-_ENSG00000139116_ENST00000544797|hu_mus|hu_hu_hu_mus_False|98_98 (ssRNA)", "RNA": "GGGAGUUCUACAGUCCGACGAUCGGUUUGGCUGUUACCCCCGAGGGAAUCCUGCAAGAGUCUUGUCAGCUUAGAGUCUCUGUAAGGGACAUGGGUGGCUCUCUUGCUCUUGUCCCCCAAGGCGCUGAUUACAUUCCCAAGAGCCAACAGAGGAUUGAGCAUCA"}, "B20": {"name": "chr10:112654219:112654220:+_ENSG00000150593_ENST00000280154|hu_mus|motif|central (ssRNA)", "RNA": "GGGAGUUCUACAGUCCGACGAUCCCACAAGGAUUUUAAUAAAUCUAAGAUCAUCUUGAAUGCACUUUCUCCAGUUGACUCGGAAACCAUUACAAUGGCUUCAUAUACAAGCUCGUGGUGAAAAUGAGGUACUUCCAGUUCCUUCAACAGAGGAUUGAGCAUCA"}, "B21": {"name": "chr5:132409753:132409754:+_ENSG00000170606_ENST00000304858|hu_hu|motif|central (ssRNA)", "RNA": "GGGAGUUCUACAGUCCGACGAUCUCUAUUAAAUGCACAUACAGAAACUUGAUAAGCAGAGUGGCCCAUGUCUACAAAAACGGCAUUUCUUGGUUUCUCUUCUAAGGCAGGAAGAUCCUGCUUAUAGAUUCCAUAUGCAAGAGCCAACAGAGGAUUGAGCAUCA"}, "B22": {"name": "23874580_23874700_1019_3pUTR_ENSMUSG00000023909_ENSMUST00000024702|mouse|control|control (ssRNA)", "RNA": "GGGAGUUCUACAGUCCGACGAUCAACCCCAGCAUGGAGCUGGAGGAUGGAGCCCACACUCAGCAAGUGCAUGAUCUGGUGGGAGUUGCCCCAGUAGUCGAAGCGACCAGGCCCCCACCGCUCUGGCAGGCGUGCCACAUUCACCAACAGAGGAUUGAGCAUCA"}}, "note": "Some of the results follow."}
{"molecular_target": "T1, UNK ZnF1-3 (human, UniProt Q9C0B0 31-174)", "T1 sequence": "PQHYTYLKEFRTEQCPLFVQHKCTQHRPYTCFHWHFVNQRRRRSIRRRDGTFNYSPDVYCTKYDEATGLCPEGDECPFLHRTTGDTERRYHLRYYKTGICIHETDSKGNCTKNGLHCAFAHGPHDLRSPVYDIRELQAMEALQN", "experiment": "nsRBNS (natural sequence RNA bind-n-seq); RBNS binding buffer (assumed for nsRBNS): 25 mM Tris pH 7.5, 150 mM KCl, 3 mM MgCl2, 0.01% Triton X-100, 500 ug/ml BSA, 20 U/ml SUPERase-In, 4 C; UNK is unkempt and MSI1 is Musashi-1; names of the RNAs are library labels; protein concentration not given here; high values mean tight binding", "units": {"binding signal": "enrichment R"}}
{"binder": "B1", "binding signal": 2.44}
{"binder": "B2", "binding signal": 0.77}
{"binder": "B3", "binding signal": 2.18}
{"binder": "B4", "binding signal": 1.75}
{"binder": "B5", "binding signal": 1.56}
{"binder": "B6", "binding signal": 0.859}
{"binder": "B7", "binding signal": 2.52}
{"binder": "B8", "binding signal": 1.21}
{"binder": "B9", "binding signal": 1.65}
{"binder": "B10", "binding signal": 1.13}
{"binder": "B11", "binding signal": 1.56}
{"binder": "B12", "binding signal": 0.836}
{"binder": "B13", "binding signal": 0.974}
{"binder": "B14", "binding signal": 1.16}
{"binder": "B15", "binding signal": 2.43}
{"binder": "B16", "binding signal": 0.43}
{"binder": "B17", "binding signal": 0.601}
{"binder": "B18", "binding signal": 0.913}
{"binder": "B19", "binding signal": 0.74}
{"binder": "B20", "binding signal": 0.956}
{"binder": "B21", "binding signal": 0.898}
{"binder": "B22", "binding signal": 0.742}
